Results taken from the supplement of paper PMC9174493.
This is one part of the list. Single values of this set are uncertain. Values with irradiation are relative to irradiated vehicle.

Key:
A549-Dual [1] = assay: NF-kB reporter (SEAP) activity, viability-corrected, relative to vehicle (fold change vs vehicle); higher = more activation of STING-IRF / NF-kB immune response reporter; details: 10 µM
A549-Dual [2] = assay: ISRE reporter (Lucia luciferase) activity, viability-corrected, relative to vehicle (fold change vs vehicle); higher = more activation of STING-IRF / NF-kB immune response reporter; details: 10 µM
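For NF-kB reporter (SEAP) activity, viability-corrected, relative to vehicle in this document: viability correction based on the alamar blue assay, with concentrations leaving 10% survival or less dropped.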

Row | Compound | NF-kB reporter (A549-Dual [1]; irradiation: 8 Gy/4 fr) | NF-kB reporter (A549-Dual [1]; irradiation: none) | ISRE reporter (A549-Dual [2]; irradiation: 8 Gy/4 fr) | ISRE reporter (A549-Dual [2]; irradiation: none)
1 | NC(=O)CN1CCCC1=O [Piracetam] | 0.486 | 1.05 | 0.535 | 0.964
2 | CN[C@@H]1[C@@H](O)[C@@H](O[C@@H]2[C@@H](O)[C@H](O[C@H]3O[C@H](CN)CC[C@H]3N)[C@@H](N)C[C@H]2N)OC[C@]1(C)O.CN[C@@H]1[C@@H](O)[C@@H](O[C@@H]2[C@@H](O)[C@H](O[C@H]3O[C@H]([C@@H](C)N)CC[C@H]3N)[C@@H](N)C[C@H]2N)OC[C@]1(C)O.CN[C@@H]1[C@@H](O)[C@@H](O[C@@H]2[C@@H](O)[C@H](O[C@H]3O[C@H]([C@@H](C)NC)CC[C@H]3N)[C@@H](N)C[C@H]2N)OC[C@]1(C)O [Gentamicin Sulfate] | 1.01 | 1.42 | 0.917 | 1.47
3 | C[N+](C)(C)CCCCCCCCCC[N+](C)(C)C.[Br-].[Br-] [Decamethonium Bromide] | 0.915 | 0.823 | 1.09 | 0.888
4 | CC(C)N(CCC(C(N)=O)(c1ccccc1)c1ccccn1)C(C)C.O=P(O)(O)O (configuration not stated) [Disopyramide Phosphate] | 1.3 | 0.722 | 1.31 | 0.653
5 | CN(C)C(=O)Oc1ccc[n+](C)c1.[Br-] [Pyridostigmine Bromide] | 0.7 | 0.949 | 0.716 | 0.756
6 | CN(C)C(=O)C(CCN1CCC(O)(c2ccc(Cl)cc2)CC1)(c1ccccc1)c1ccccc1.Cl [Loperamide HCl] | 1.05 | 0.821 | 0.933 | 0.902
7 | N#C[S][Na] [Sodium Thiocyanate] | 0.997 | 0.753 | 0.929 | 0.647
8 | CC(C)N(CCC(C(N)=O)(c1ccccc1)c1ccccn1)C(C)C (configuration not stated) [Disopyramide] | 0.967 | 1.37 | 0.816 | 0.841
9 | Cl.Clc1ccc(C(OCCN2CCCCC2)c2ccccc2)cc1 (configuration not stated) [Cloperastine hydrochloride] | 0.743 | 1.33 | 0.595 | 0.877
10 | CC(=O)CC(C)C [4-Methyl-2-pentanone] | 1.05 | 0.595 | 1 | 0.457
11 | C=C1CCC2C(/C=C(\C)C(=O)C3(O)CC(C)C(O)C3C1O)C2(C)C (configuration not stated) [Lathyrol] | 0.46 | 0.949 | 0.0833 | 0.368
12 | CCC1CN2CCC1CC2C(O)c1ccnc2ccc(OC)cc12 (configuration not stated) [Hydroquinine] | 1.25 | 0.927 | 1.35 | 0.864
13 | CCCCOC(=O)c1ccccc1C(=O)OCCCC [Dibutyl phthalate] | 0.78 | 0.856 | 0.687 | 0.643
14 | CCC(C)C(C(CC(=O)N1CCCC1C(OC)C(C)C(=O)NC(C)C(O)c1ccccc1)OC)N(C)C(=O)C(NC(=O)C(NC)C(C)C)C(C)C (configuration not stated) [Monomethyl auristatin E (MMAE)] | 0.929 | 1.65 | 0.0733 | 0.425
15 | O=c1cccc2n1CC1CNCC2C1 (configuration not stated) [Cytisine] | 0.539 | 0.909 | 0.474 | 0.488
16 | C=C1CC2C(CCC3(C)C(=O)CCC23)C2(C)C=CC(=O)C=C12 (configuration not stated) [Exemestane] | 0.905 | 1.01 | 0.87 | 0.863
17 | CC12C=CC(=O)C=C1CCC1C2CCC2(C)C(O)CCC12 (configuration not stated) [Boldenone] | 0.877 | 0.836 | 0.904 | 0.654
18 | O=C1C=CC(=O)C=C1 [p-Benzoquinone] | 1 | 0.777 | 0.925 | 0.581
19 | Cl.O=C1CCC2(O)C3Cc4ccc(O)c5c4C2(CCN3CC2CC2)C1O5 (configuration not stated) [Naltrexone HCl] | 0.639 | 0.846 | 0.749 | 0.796
20 | CC(CCc1ccccc1)NC(C)C(O)c1ccc(O)cc1.Cl (configuration not stated) [Nylidrin Hydrochloride] | 1.04 | 0.689 | 1.18 | 0.715
21 | CC12CCC(O)CC1CCC1C2CC(O)C2(C)C(C3=CC(=O)OC3)CCC12O (configuration not stated) [Digoxigenin] | 3.23 | 4.11 | 0.064 | 0.158
22 | O=[N+]([O-])OC1COC2C(O[N+](=O)[O-])COC12 (configuration not stated) [Isosorbide dinitrate] | 1.1 | 0.564 | 0.959 | 0.5
23 | Cc1cccc(C)c1NC(=O)CN1CCCC1=O [Nefiracetam] | 0.697 | 0.724 | 0.763 | 0.663

Row | Compound | NF-kB reporter (A549-Dual [1]; irradiation: 8 Gy/4 fr) | NF-kB reporter (A549-Dual [1]; irradiation: none) | ISRE reporter (A549-Dual [2]; irradiation: 8 Gy/4 fr) | ISRE reporter (A549-Dual [2]; irradiation: none)
24 | COP(=O)(OC)SCn1c(=O)oc2cc(Cl)cnc21 [Azamethiphos] | 0.963 | 1.03 | 0.699 | 0.749
25 | CC(C)C(Br)C(=O)NC(N)=O (configuration not stated) [Bromisoval] | 0.922 | 1.35 | 0.83 | 0.808
26 | O=C(OC1CC2CCC(C1)[N+]21CCCC1)C(O)(c1ccccc1)c1ccccc1.[Cl-] (configuration not stated) [Trospium chloride] | 0.794 | 1.2 | 0.783 | 0.71
27 | CC1/C=C/C=C/CC/C=C/C=C/C=C/C=C/C(OC2OC(C)C(O)C(N)C2O)CC2OC(O)(CC(O)C(O)CCC(O)CC(O)CC(O)CC(=O)OC(C)C(C)C1O)CC(O)C2C(=O)O (configuration not stated) [Nystatin (Fungicidin)] | 0.562 | 0.867 | 0.505 | 0.594
28 | C=CCC(C(=O)NC(N)=O)C(C)C (configuration not stated) [Apronal] | 0.865 | 1.7 | 0.625 | 0.835
29 | CCNCC.O=C(O)Cc1ccccc1Nc1c(Cl)cccc1Cl [Diclofenac Diethylamine] | 0.401 | 0.652 | 0.45 | 0.749
30 | CCN1CC2(OC(=O)c3ccccc3NC(C)=O)CCC(OC)C34C1C(CC23)C1(O)CC(OC)C2CC4C1(O)C2OC (configuration not stated) [Lappaconitine] | 0.985 | 0.963 | 0.977 | 0.824
31 | CNC1C(O)C(OC2C(N)CC(N)C(OC3OC(C(C)O)C(O)C(O)C3N)C2O)OCC1(C)O.O=S(=O)(O)O.O=S(=O)(O)O (configuration not stated) [Geneticin (G418 Sulfate)] | 0.747 | 0.838 | 0.722 | 1.04
32 | CN(C)C1C(O)=C(C(N)=O)C(=O)C2(O)C(=O)C3=C(O)c4c(O)cccc4C(C)(O)C3C(O)C12 (configuration not stated) [Oxytetracycline (Terramycin)] | 0.579 | 1.19 | 0.67 | 0.977
33 | CC(C)(C)NCC(O)c1ccccc1Cl.Cl (configuration not stated) [Tulobuterol hydrochloride] | 1.12 | 0.872 | 1.12 | 0.788
34 | O=C([O][Na])C(Cl)Cl [Sodium dichloroacetate (DCA)] | 1.01 | 0.701 | 0.964 | 0.597
35 | C=CCC1(O)CCC2C3CCC4=CC(=O)CCC4=C3C=CC21C (configuration not stated) [Altrenogest] | 0.531 | 0.993 | 0.28 | 0.485
36 | NCCCNCCSP(=O)(O)O.O.O.O [Amifostine] | 0.959 | 0.912 | 0.839 | 0.842
37 | CCC1C2CC3C4N(C)c5ccccc5C45CC(C2C5O)N3C1O (configuration not stated) [Ajmaline] | 0.662 | 0.969 | 0.71 | 0.699
38 | COc1ccc2c3c([nH]c2c1)C(C)=NCC3 [Harmaline] | 0.721 | 1.13 | 0.458 | 0.643
39 | C=C(C)C1C2OC(=O)C1C1(O)CC3OC34C(=O)OC2C14C (configuration not stated) [Picrotoxinin] | 0.747 | 0.446 | 0.65 | 0.434
40 | CC(C)N(CCNC(=O)CN1CCCC1=O)C(C)C [Pramiracetam] | 1.12 | 2.04 | 1.04 | 1.62
41 | CN1c2ccccc2C(NCCCCCCC(=O)O)c2ccc(Cl)cc2S1(=O)=O (configuration not stated) [Tianeptine] | 0.775 | 0.99 | 0.832 | 0.879
42 | C=CC1CN2CCC1CC2C(O)c1ccnc2ccccc12 (configuration not stated) | 0.857 | 0.509 | 0.862 | 0.579
43 | C=CC1CN2CCC1CC2C(O)c1ccnc2ccccc12 (configuration not stated) [Cinchonidine] | 0.869 | 0.537 | 0.961 | 0.756
44 | C#CC1(O)CCC2C3CCC4=CC(=O)CCC4(C)C3CCC21C (configuration not stated) [Ethisterone] | 0.716 | 0.587 | 0.652 | 0.441
45 | CC(C)OC(=O)C(C)NP(=O)(COC(C)Cn1cnc2c(N)ncnc21)Oc1ccccc1 (configuration not stated) [Tenofovir Alafenamide (GS-7340)] | 0.707 | 0.86 | 0.669 | 1.1
46 | CC12CCC3C(CCC4CC(O)CCC43C)C1CCC2=O (configuration not stated) [Androsterone] | 1.02 | 0.916 | 1.08 | 0.631

Row | Compound | NF-kB reporter (A549-Dual [1]; irradiation: 8 Gy/4 fr) | NF-kB reporter (A549-Dual [1]; irradiation: none) | ISRE reporter (A549-Dual [2]; irradiation: 8 Gy/4 fr) | ISRE reporter (A549-Dual [2]; irradiation: none)
47 | CC1(C)SC2C(N)C(=O)N2C1C(=O)O (configuration not stated) [6-Aminopenicillanic acid] | 0.956 | 0.807 | 0.978 | 0.764
48 | COc1ccc(C=O)cc1 [p-Anisaldehyde] | 0.781 | 0.83 | 0.662 | 0.537
49 | COC(=O)c1ccccc1C(=O)OC [Dimethyl phthalate] | 0.844 | 1.17 | 0.75 | 0.982
50 | CC(=O)OC1CC(OC2C(O)CC(OC3C(O)CC(OC4CCC5(C)C(CCC6C5CC(O)C5(C)C(C7=CC(=O)OC7)CCC65O)C4)OC3C)OC2C)OC(C)C1OC1OC(CO)C(O)C(O)C1O (configuration not stated) [Lanatoside C] | 2.18 | 2.65 | 0.133 | 0.219
51 | Cc1cccc(C)c1NC1=NCCCS1.Cl [Xylazine HCl] | 0.802 | 1.26 | 0.771 | 0.83
52 | Cc1ccc(N=CN(C)C=Nc2ccc(C)cc2C)c(C)c1 [Amitraz] | 0.98 | 1.08 | 1.01 | 0.993
53 | CCC(C(N)=O)N1CCCC1=O (configuration not stated) [Levetiracetam] | 0.709 | 0.853 | 0.752 | 0.863
54 | CC(NC(C)(C)C)C(=O)c1cccc(Cl)c1.Cl (configuration not stated) [Amfebutamone (Bupropion) HCl] | 0.979 | 0.9 | 0.99 | 0.632
55 | Br.CC(Cc1ccc(O)cc1)NCC(O)c1cc(O)cc(O)c1 (configuration not stated) [Fenoterol hydrobromide] | 0.921 | 0.864 | 1.08 | 0.935
56 | CC12CCC3C(CCC4CC(=O)CCC43C)C1CCC2O (configuration not stated) [Dihydrotestosterone(DHT)] | 0.654 | 0.506 | 0.814 | 0.593
57 | CNC1CC(N)C(O)C(OC2OC(CO)C(O)C3OC4(OC(C(N)CO)C(O)C(O)C4O)OC23)C1O (configuration not stated) [Hygromycin B] | 0.855 | 0.959 | 1.01 | 1.22
58 | C=CC12CN(C)C3C4COC(CC41)C1(C(=O)Nc4ccccc41)C32 (configuration not stated) [Gelsemine] | 1.17 | 0.725 | 1.33 | 0.911
59 | Nc1nc(N)nc(N)n1 [Melamine] | 0.826 | 0.559 | 0.813 | 0.53
60 | Oc1cc(Cl)ccc1Oc1ccc(Cl)cc1Cl [Triclosan] | 0.264 | 0.509 | 0.092 | 0.302
61 | CCC(COC(=O)c1cc(OC)c(OC)c(OC)c1)(c1ccccc1)N(C)C.O=C(O)/C=C\C(=O)O (configuration not stated) [Trimebutine maleate] | 0.646 | 0.546 | 0.683 | 0.434
62 | CCCCCCCCC(=O)NCc1ccc(O)c(OC)c1 [Nonivamide] | 0.973 | 0.861 | 0.831 | 0.867
63 | CC(=O)C1CCC2C3CCC4CC(O)CCC4(C)C3CCC12C (configuration not stated) [Allopregnanolone] | 0.514 | 0.768 | 0.46 | 0.626
64 | CC(=O)OC1CCC2(C)C(=CCC3C4CCC(=O)C4(C)CCC32)C1 (configuration not stated) [Dehydroepiandrosterone acetate] | 0.992 | 0.713 | 1.09 | 0.671
65 | Cl.NCC1(CC(=O)O)CCCCC1 [Gabapentin HCl] | 0.812 | 1.79 | 0.622 | 0.864
66 | Cc1cccc(C(C)c2cnc[nH]2)c1C (configuration not stated) [Dexmedetomidine] | 0.942 | 1.28 | 0.871 | 0.886
67 | O=c1ccc2cc(OC3OC(CO)C(O)C(O)C3O)c(O)cc2o1 (configuration not stated) [Esculin] | 0.718 | 0.68 | 0.709 | 0.632
68 | Br.CN1C2CC(OC(=O)C(CO)c3ccccc3)CC1C1OC12.O.O.O (configuration not stated) [Scopolamine HBr trihydrate] | 0.762 | 0.451 | 0.654 | 0.416
